Source: US20230203100A1, “COMPOSITIONS INCLUDING MULTI-AGONIST PEPTIDES AND METHODS OF MANUFACTURE AND USE” (Pep2Tango Therapeutics Inc., priority 2021, published 2023)

B1: Y-(d)AEGTFTSDYSIALDKIAQQAFVQWLLAGGPSCNTATCVLGRLSQELHRLQTYPRTNTGK*-N-T-Y-NH2 (peptide)
chain: Y[dA]EGTFTSDYSIALDKIAQQAFVQWLLAGGPSCNTATCVLGRLSQELHRLQTYPRTNTGKNTY-NH2
modifications: not fully specified (residue 60); also: acyl end R3 and chain length n (12-20) not fixed
notes: K* indicates a linking group, e.g. Lys-γGlu-γGlu—C(═O)(CH2)nR3

Assay: Blood glucose after single s.c. administration in non-fasted mice
Format: in vivo
Conditions: for Blood glucose 30 min / Blood glucose 120 min / Blood glucose Time 0: 50 nmoles/Kg single s.c., mean±SEM; for Blood glucose 30 min: 30 min after injection; for Blood glucose 120 min: 120 min after injection; for Blood glucose Time 0: time 0 (baseline)
Procedure: Differences were considered statistically significant at p<0.05. Data analysis was carried out with GraphPad software (GraphPad Prism).

| Molecule | Significant reduction of blood glucose at 30 and 120 min compared to time 0 (50 nmol/kg single s.c., result in words) | Blood glucose 30 min [mg/dL] | Blood glucose 120 min [mg/dL] | Blood glucose Time 0 [mg/dL] |
| --- | --- | --- | --- | --- |
| Cagrilintide (KCNTATCATQRLAEFLRHSSNNFGPILPPTNVGSNTP; chains of the INN, looked up) [a dual calcitonin/amylin agonist, reference compound] | not | 163.2 ± 3.62 | 157.0 ± 3.85 | 150.2 ± 1.36 |
| B1 | – | 142.0 ± 8.15 | 132.0 ± 5.28 | 170.8 ± 3.53 |

Non-standard residues stand in square brackets, D forms with d.
